The BET-seq Pho4 binding data (Le et al. 2018)
The list shows a part of the results. The energies were worked out here from pooled read counts, against the library average; single values are noisy.

Target: T1, Pho4 (S. cerevisiae) (UniProt P07270)
T1 sequence: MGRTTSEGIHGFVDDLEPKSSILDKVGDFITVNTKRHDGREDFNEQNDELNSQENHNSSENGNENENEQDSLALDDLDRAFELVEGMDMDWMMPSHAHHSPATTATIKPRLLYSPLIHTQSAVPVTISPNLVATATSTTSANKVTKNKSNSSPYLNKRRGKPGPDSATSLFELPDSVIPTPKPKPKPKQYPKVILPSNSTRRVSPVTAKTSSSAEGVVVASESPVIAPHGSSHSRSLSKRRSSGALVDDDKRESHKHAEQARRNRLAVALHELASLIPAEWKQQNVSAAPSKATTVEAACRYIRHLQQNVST
Assay: relative binding free energy (BET-seq); higher = weaker binding
Details: reference: library average

Sequence | relative binding free energy [kcal/mol]
GGTAGCACGTGATATA | 0.11
GTGCACACGTGCGGGG | -0.03
TAGGACACGTGATTGG | 0.32
TGTCGCACGTGGAGGA | -0.19
AAGGTCACGTGGTCCG | 0.09
TTTCGCACGTGGTGGA | -0.06
ACTTACACGTGTGGTT | 0
ATAAACACGTGCGTTT | 0.05
GTTCCCACGTGGGGTG | -0.11
GTGCCCACGTGTTTTG | 0.01
GTATTCACGTGGGTTT | 0.17
TATAGCACGTGGCATT | -0.11
AAGGGCACGTGCGTGT | -0.22
TCAGGCACGTGATGTT | -0.13
AGTTACACGTGGTAGT | -0.03
GATGGCACGTGAGCAG | 0.13
TAAGGCACGTGACGAG | 0.01
TTTTACACGTGTGAAA | 0.24
GGAGTCACGTGGGCGT | 0.04
GTCTTCACGTGTTATA | 0.14
ATGCACACGTGGGGGA | -0.07
GTGTTCACGTGTGTAA | 0.33
TTTGTCACGTGTTGTC | 0.1
TTTAACACGTGCGGGA | 0.08
TGCGTCACGTGATGGA | 0.29

Sequence | relative binding free energy [kcal/mol]
AGAGACACGTGGGGGC | -0.06
GGCGTCACGTGCGTTT | 0.04
ATAGTCACGTGTAGTA | 0.12
GTGATCACGTGTGCGT | 0.11
GGCTGCACGTGGAGTA | 0.03
AAGATCACGTGAGTGG | 0.16
TGTGACACGTGGTGGC | -0.02
GGGGCCACGTGAAGGG | 0.16
TTGTTCACGTGAGAAG | 0.36
CTAGGCACGTGACGGT | -0.04
GCTGGCACGTGATCGT | 0.01
TATGGCACGTGTAGTA | -0.08
GAAGGCACGTGTTGTC | 0.04
AGGGGCACGTGATTGA | -0.06
TGGTGCACGTGCATGT | -0.11
ATGGACACGTGCAGGA | 0.03
GGATTCACGTGGTGCT | 0.15
GAAGGCACGTGTATGT | -0.15
AATTTCACGTGGTTTA | 0.22
AGGGGCACGTGATATC | 0.04
GTGAGCACGTGTATTA | -0.18
AGGTGCACGTGGCTCA | 0.04
GTGAGCACGTGTAGGA | -0.12
CTGGACACGTGGGCGG | -0.06
GGGGGCACGTGGGCCT | -0.36

Sequence | relative binding free energy [kcal/mol]
TGTAGCACGTGGGCAG | -0.26
GGTTGCACGTGGCTAT | -0.01
TGTTCCACGTGTCTTT | 0.06
GAGATCACGTGGGAGG | 0.04
GGGTTCACGTGTTAAC | 0.29
AGTGGCACGTGCTTTT | -0.24
GTTATCACGTGGTGGA | 0.15
AGGGTCACGTGGCCAT | 0.1
ACTATCACGTGGGAGG | 0.07
AGAAGCACGTGATAGG | 0
TTAATCACGTGTTCAG | 0
TTAAACACGTGTGCTG | 0.08
GTATGCACGTGATATT | 0.07
TAATGCACGTGGTAAG | -0.09
ATGGACACGTGGCTGT | -0.07
GACTTCACGTGTTTTG | 0.23
AGCTGCACGTGGGCTG | -0.07
AGTTCCACGTGGGAGT | -0.16
TTGGTCACGTGTTGCC | 0.14
CTTTTCACGTGTATTG | 0.24
TTAGTCACGTGCTCTT | 0.15
AGTAGCACGTGTAGAT | 0.08
GAGTTCACGTGTTTGG | 0.24
AGGGCCACGTGTAAGG | 0.04
GGTTCCACGTGTGTGG | 0.07

Sequence | relative binding free energy [kcal/mol]
GTACTCACGTGGGTGT | 0.03
TTTCACACGTGTATTT | 0.05
GTTTACACGTGTGTTA | 0.23
TATAACACGTGGTTAA | -0.04
AAGATCACGTGGGCGT | 0.1
CGTTCCACGTGGGTTT | -0.02
ATAGACACGTGACTGG | 0.06
TGAGTCACGTGGCAGT | -0.06
ATTCTCACGTGGGAGG | 0.09
GTGTTCACGTGCTTAT | 0.27
GTATGCACGTGAACGT | 0.12
ATAATCACGTGTATAG | 0.12
TTAACCACGTGTGTAT | -0.03
ACGGTCACGTGTATTG | 0.08
AAAATCACGTGGGGAG | -0.01
CATATCACGTGTTTTG | 0.26
TTTGCCACGTGGTAGG | -0.18
TGTCTCACGTGTAGAT | 0.21
GTGTGCACGTGGATGG | 0.08
GGTGACACGTGGCGAG | -0.12
GGTGTCACGTGCTGGG | 0.13
GGGGACACGTGTGGAC | 0.09
GTCGGCACGTGTGAGG | 0.15
TAAGGCACGTGCGAGG | -0.15
AGGCACACGTGTTGGT | 0.17

Sequence | relative binding free energy [kcal/mol]
TGAGTCACGTGCTGGG | 0.1
TTTTGCACGTGTCGAT | -0.02
ACGTACACGTGTTTTG | 0
TTTGACACGTGGGTGC | -0.16
CTTCGCACGTGAGGTG | 0.23
CTTGTCACGTGATAGT | 0.04
GCGTGCACGTGGGAGA | -0.04
ATACACACGTGGGGTG | -0.28
TGAGTCACGTGAGGAC | 0.4
CTGTGCACGTGGGCTA | -0.19
GTGGCCACGTGTGGCT | -0.08
TTTGTCACGTGTTCGT | 0.14
GGTTGCACGTGATGCC | 0.22
CATTTCACGTGGGGTA | 0.06
ATTGTCACGTGGTCAC | 0.08
CGTAGCACGTGTAAGT | -0.02
TGGGACACGTGTATGT | -0.02
GGTACCACGTGTGGGG | -0.01
TAATTCACGTGTCTGG | 0.25
TTCGTCACGTGTGTTA | 0.15
GGAAACACGTGGGTCG | -0.08
CTGTTCACGTGGTGGG | 0.22
GGTTTCACGTGAGACT | 0.44
GAAGTCACGTGTGTTG | 0.17
TGTCGCACGTGATATG | 0.01

Sequence | relative binding free energy [kcal/mol]
TGGTTCACGTGGTAAT | 0.29
TTTGTCACGTGTCTTC | 0.26
GTCGCCACGTGGTGTG | -0.08
TTACGCACGTGAGGTG | -0.02
GATTTCACGTGGTGCC | 0.55
TCGTGCACGTGGGATG | -0.06
TGGAACACGTGGTCTG | 0.04
TTGCTCACGTGGTTCG | 0.05
GGGCGCACGTGTGGAC | -0.03
CATTCCACGTGTGGTG | 0.07
GATGGCACGTGGGGAA | -0.1
GTTTTCACGTGCCGTG | 0.32
CGTGGCACGTGTGAAA | -0.03
CGTGTCACGTGGCTGG | -0.08
GGATGCACGTGTTGCG | -0.03
TCGATCACGTGAGTTG | 0.16
GTTGGCACGTGTTACT | -0.19
TTAGGCACGTGTCTGA | -0.09
TGAGGCACGTGAAAGA | 0.13
TGTTTCACGTGGGCTG | 0.22
TATGGCACGTGAATAA | 0.17
